The other results are listed elsewhere or left out.
Biological target: T1, OsWOX13 (Oryza sativa, UniProt Q5QMM3 1-267)
T1 sequence: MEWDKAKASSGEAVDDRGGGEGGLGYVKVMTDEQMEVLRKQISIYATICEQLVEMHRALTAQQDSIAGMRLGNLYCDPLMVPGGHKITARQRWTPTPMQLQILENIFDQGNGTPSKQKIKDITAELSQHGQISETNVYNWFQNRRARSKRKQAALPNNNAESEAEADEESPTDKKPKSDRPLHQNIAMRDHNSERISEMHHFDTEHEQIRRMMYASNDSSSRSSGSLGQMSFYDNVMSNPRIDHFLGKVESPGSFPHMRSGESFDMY
Assay: protein-binding microarray (RPBM); PBS, 2% BSA, 51.3 ng/ul salmon testes DNA, 50 uM zinc acetate, 200 nM TF, 25 C, 1 h; high values mean tight binding
Details: protein: recombinant; tags: N-terminal polyhistidine and DsRed monomer fusion (pET32a); label: CyDye5-dUTP incorporated in the synthesized complementary strand; 3' TTTTT single-stranded linker to array surface; dsDNA, one strand shown
Outline: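 Per-feature fluorescence intensity (arbitrary units), read on an Axon 4000B scanner, is the binding signal. Transcription factors carrying an N-terminal polyhistidine tag and DsRed fusion were expressed in E. coli BL21-CodonPlus and purified on Ni–NTA. A custom Agilent array, made double-stranded by primer extension with Cy5-dUTP and blocked with 2% BSA, was incubated with 200 nM protein in PBS, 2% BSA, salmon testes DNA and 50 µM zinc acetate at 25 °C for 1 h and then washed.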

Sequence	binding signal
CTTTGTATTTTAATAATTGAAAACTGATGTAAGTTATGAGCGGAGTCACCTAGTGCAG	8880 fluorescence intensity (a.u.)
ACTTCCCATGTAAATTATGTCAATTCAGAAACGACAATCTCGGAGTCACCTAGTGCAG	5710 fluorescence intensity (a.u.)
ACTTTCTCTTCTCAACCAATCACATACTTCCTCTAATCATCGGAGTCACCTAGTGCAG	3450 fluorescence intensity (a.u.)
GAAATTATTGCTGAAATTTTGTCCTTCATAGTGTGCTGTTCGGAGTCACCTAGTGCAG	12200 fluorescence intensity (a.u.)
CTGACGTCGCCTTTGATTGTGTAGATTAGCTTCTTTGGATCGGAGTCACCTAGTGCAG	11500 fluorescence intensity (a.u.)
ATAGGGTGTAATTTATTTTCGGATTTGCTACATCTCTGTCCGGAGTCACCTAGTGCAG	4320 fluorescence intensity (a.u.)
CGTGTCTCCCCAATCCCAATCACTAGCCTCCTCCGTCGACCGGAGTCACCTAGTGCAG	3180 fluorescence intensity (a.u.)
GTCACGACGCCCTGATTGGCGTGAGGACATAGTTACATTTCGGAGTCACCTAGTGCAG	9000 fluorescence intensity (a.u.)
AACCAAAATTGATGCTTGGGGAGCATCCATTGGAGAGGCCCGGAGTCACCTAGTGCAG	12200 fluorescence intensity (a.u.)
GCTTTTAAATCAAAATCATCAATTTCTGCTTTATTAACCCCGGAGTCACCTAGTGCAG	11100 fluorescence intensity (a.u.)
CCATGATTTGACAATGTGATGCTACAGTAAACATTTGCTACGGAGTCACCTAGTGCAG	42800 fluorescence intensity (a.u.)
CTGTATATTGATTGATTGGTTATTCGCAAGAAACATGACTCGGAGTCACCTAGTGCAG	65100 fluorescence intensity (a.u.)
TCTACTATATCAATTTAGTTTCATTAAATATAACGCTGAACGGAGTCACCTAGTGCAG	4370 fluorescence intensity (a.u.)
CAGTTTTGATCATTGAATTAATTGGCCAGGTCTATTCCCCCGGAGTCACCTAGTGCAG	40800 fluorescence intensity (a.u.)
CTAACTTAGAGATAGATTAGCATGTATGACACATCAATTTCGGAGTCACCTAGTGCAG	5120 fluorescence intensity (a.u.)
TCCAAAATCAATCAATTAAAACCCATAGTTATTGTTGACTCGGAGTCACCTAGTGCAG	53500 fluorescence intensity (a.u.)
ACTTACTATAACATTGATTGTTATGTCACTTGTATGTGGACGGAGTCACCTAGTGCAG	23800 fluorescence intensity (a.u.)
CTATAATTGAACGAGCATACTGATGGAGAGATCAAGAATCCGGAGTCACCTAGTGCAG	22500 fluorescence intensity (a.u.)
GGAGGTATACGTAATTAATTATCTTCCTCCGACAGGGCGACGGAGTCACCTAGTGCAG	16900 fluorescence intensity (a.u.)
GTAATTGAAGATCGGAGTGTTGTATTTGAGCTGGCAAGTTCGGAGTCACCTAGTGCAG	9630 fluorescence intensity (a.u.)
GCTTCTCTTCATTCATTCTTTGACTTCTTCTCCTAATTTACGGAGTCACCTAGTGCAG	4220 fluorescence intensity (a.u.)

Sequence	binding signal
TCAAATTAATTGCAGCCATCGATCGATCAATCCATGGATGCGGAGTCACCTAGTGCAG	50100 fluorescence intensity (a.u.)
TGTTATAACGGATTTCTAATTATATGTCTTAAGTTGTTAGCGGAGTCACCTAGTGCAG	6010 fluorescence intensity (a.u.)
ATATATATTATGATTAGATGACATGGTCAAAAGATATATTCGGAGTCACCTAGTGCAG	8510 fluorescence intensity (a.u.)
GCATGACCAAATTGCAAAATGTACCAGGCCCGAGATCGATCGGAGTCACCTAGTGCAG	3680 fluorescence intensity (a.u.)
ATTAATTATTAAATAGATTTAAATAAGATATGATGATTAACGGAGTCACCTAGTGCAG	38100 fluorescence intensity (a.u.)
ATTCTAATTAAAATTCTGATGAAGTGGTCTGGGTCTAGGTCGGAGTCACCTAGTGCAG	18800 fluorescence intensity (a.u.)
TTAATATATATTAATATATATTAGTGATATGCGAAACATACGGAGTCACCTAGTGCAG	3610 fluorescence intensity (a.u.)
TTAATTTATTCCATATAATCTCTGTTCTTGCTTAATGAAGCGGAGTCACCTAGTGCAG	5130 fluorescence intensity (a.u.)
GCAAATTAACTTAATTAATAAGTTGAGCAGCCTGTAGGCCCGGAGTCACCTAGTGCAG	58200 fluorescence intensity (a.u.)
TATAAATAACTTTGAAGATTGAATCGACATATCATACGATCGGAGTCACCTAGTGCAG	21200 fluorescence intensity (a.u.)
ATAATAAAGCATGATTAATATTTTATGCGTGACTTGTCTTCGGAGTCACCTAGTGCAG	6400 fluorescence intensity (a.u.)
TCCGATCAAGATTGAAATATCCACTTGTACATATACAACTCGGAGTCACCTAGTGCAG	6900 fluorescence intensity (a.u.)
TCGCACTAAATTAGCCCAACATTCTCCTCGCTTCCTCCTCCGGAGTCACCTAGTGCAG	6860 fluorescence intensity (a.u.)
TGTCAATCATGTACCTTGTGAACATTTAAGTGCATGTGGACGGAGTCACCTAGTGCAG	17900 fluorescence intensity (a.u.)
ACACCAATTGATTGTTGCTATGCCATACTCTGTAAAACAACGGAGTCACCTAGTGCAG	16000 fluorescence intensity (a.u.)
GTAATTTGGTTAATTTTGAACAAAACCGTTTAAGATGCACCGGAGTCACCTAGTGCAG	15600 fluorescence intensity (a.u.)
TCCTAATTTGGCGAATTACATGCCAGACCAAAAGGGGCTCCGGAGTCACCTAGTGCAG	6720 fluorescence intensity (a.u.)
ATCATAACTAAAGCTAAACTGATGTTTGGTAGACCGTACCCGGAGTCACCTAGTGCAG	5170 fluorescence intensity (a.u.)
ATAACTATTTAATTGACATGCAATAAATATAAATGGGTAGCGGAGTCACCTAGTGCAG	52600 fluorescence intensity (a.u.)
AATTTATTAATTAAAATTAGATCTTCTCTTCTAGGCTTTTCGGAGTCACCTAGTGCAG	13400 fluorescence intensity (a.u.)
CGTTTCTTGATTCGATGGTTGATGGATTTTGGTTTGTGGACGGAGTCACCTAGTGCAG	4980 fluorescence intensity (a.u.)

Sequence	binding signal
CTCTCTCTAAACCAATTAGCGATTGGATCATTCGGGCCTGCGGAGTCACCTAGTGCAG	6680 fluorescence intensity (a.u.)
CATGATTGAGCAGGTTCCAACGGGCCTACGTGGGCCTTAGCGGAGTCACCTAGTGCAG	16900 fluorescence intensity (a.u.)
TAGTAATTTGTTGGCCACAAGTGTGGCTAAGTTTGGTAAGCGGAGTCACCTAGTGCAG	5620 fluorescence intensity (a.u.)
TAAAATTATTTACATGTCTTTGACTTTCTAAAAGAAATCGCGGAGTCACCTAGTGCAG	6060 fluorescence intensity (a.u.)
TACACTAAAATTACATATGTAATTTAAACACTTACATAGGCGGAGTCACCTAGTGCAG	14400 fluorescence intensity (a.u.)
ATAATTAAGCATTTTCTTGTTTCATATGTGCTTGTTTGACCGGAGTCACCTAGTGCAG	3680 fluorescence intensity (a.u.)
TAACTATAATGAAATTTACTGGGAGTTTATGCTGTGCTTGCGGAGTCACCTAGTGCAG	4040 fluorescence intensity (a.u.)
CATTGATTGGCCAGCCGAGGTCTAGCCTCAACCTAGCGTGCGGAGTCACCTAGTGCAG	54800 fluorescence intensity (a.u.)
ATGTGATTGATTCTGCTGGTGGATTCTCTCTTCGGTTTGCCGGAGTCACCTAGTGCAG	62800 fluorescence intensity (a.u.)
AAAGTAAACAGATGAATAAACCAGTTCTCATGCAAGAAACCGGAGTCACCTAGTGCAG	3870 fluorescence intensity (a.u.)
TTAAATTGGATCTGATTGATTTGTTTAAGGAAACCACCGGCGGAGTCACCTAGTGCAG	54600 fluorescence intensity (a.u.)
GCTACCTGTAATTTACGTTTCGTCAAGAAACCACCTTTTACGGAGTCACCTAGTGCAG	4500 fluorescence intensity (a.u.)
ATGAAAACATGATTGCAAGTGATTCATCAGTGGCGTACAGCGGAGTCACCTAGTGCAG	20000 fluorescence intensity (a.u.)
ACACATGGACTCTCAAAAGTGATTGGCAACTGACAGCTAACGGAGTCACCTAGTGCAG	13800 fluorescence intensity (a.u.)
ATCACTTAATTTAAGTATATATTAATATAAGAACTATATACGGAGTCACCTAGTGCAG	5150 fluorescence intensity (a.u.)
TAAATTATTAGTAATTGCTAAGTTTTAAAATCCAGAAAGTCGGAGTCACCTAGTGCAG	11700 fluorescence intensity (a.u.)
TAACTGCAATTAGGGATGCATGACTAAAATAGAGCCAGCTCGGAGTCACCTAGTGCAG	3560 fluorescence intensity (a.u.)
TGTGATTACGAGCGCACAGACACAAAGGGTGTAGCTCTCGCGGAGTCACCTAGTGCAG	17800 fluorescence intensity (a.u.)
AGTCTAATTGGCAAAAGCAGGTGGTTCTTTTATCTTGAAACGGAGTCACCTAGTGCAG	33400 fluorescence intensity (a.u.)
ACGGAAATTTACAGTACAATTATTTTCCATTAGCCCGATTCGGAGTCACCTAGTGCAG	10200 fluorescence intensity (a.u.)
TCCATCGATCTCTCAATTAATTAACCTCAAGAGAGAAGTACGGAGTCACCTAGTGCAG	5890 fluorescence intensity (a.u.)

Sequence	binding signal
GTATTATAAATTTATAATTGGTGCCAGCCGCAAATTTGCGCGGAGTCACCTAGTGCAG	19100 fluorescence intensity (a.u.)
AGCACCTTCAATTTGTAAATATACATGTAATTGTACAGTACGGAGTCACCTAGTGCAG	4750 fluorescence intensity (a.u.)
CCATGATTTTGAAGTACTCTTTTATTTGAAGAAGCAAATTCGGAGTCACCTAGTGCAG	6660 fluorescence intensity (a.u.)
TGCTGGGAATCAATCAACGGGTACAAAAGATGTATGGTGACGGAGTCACCTAGTGCAG	5990 fluorescence intensity (a.u.)
GAGGACAGATCAAATGATTTTAATGACGAAACATGTGCTTCGGAGTCACCTAGTGCAG	11000 fluorescence intensity (a.u.)
AAATCACAATCATCATTTATTCAATTTCTCTATCTCTACCCGGAGTCACCTAGTGCAG	6050 fluorescence intensity (a.u.)
ATGCAACCATAGATCAATCAAAGGAGAACATGTTCAGATGCGGAGTCACCTAGTGCAG	3980 fluorescence intensity (a.u.)
GCTAATTGGTTCTCATTCGATTTGCCCATGCTCGAGTTGACGGAGTCACCTAGTGCAG	45400 fluorescence intensity (a.u.)
AATCTAATACTTAATTAATCATGCGATAATATGTCGCTACCGGAGTCACCTAGTGCAG	7220 fluorescence intensity (a.u.)
ATCCTTAATGCTAATTTGGATATGATGTGAACAAAATGAGCGGAGTCACCTAGTGCAG	8040 fluorescence intensity (a.u.)
GTGGATGTAATGAAATTAATTTGACATGAATGCAATTCCTCGGAGTCACCTAGTGCAG	26700 fluorescence intensity (a.u.)
TTTCATTATAATTGAGACTGTAAATCTCGTCTACTTTCTCCGGAGTCACCTAGTGCAG	17600 fluorescence intensity (a.u.)
TGTAAATTGTCTCCGGCGGTTAATTCTTTTAATTAAGTTTCGGAGTCACCTAGTGCAG	4900 fluorescence intensity (a.u.)
AGATAATAATTATCAGTGGGTAATGATGTGGCACACTTACCGGAGTCACCTAGTGCAG	22300 fluorescence intensity (a.u.)
TGTGATACAATCATCTCTATGATTACCTCTAGGGCATATCCGGAGTCACCTAGTGCAG	17400 fluorescence intensity (a.u.)
GCAATCATACTAGATTATTTGATTGGATCGTGTATCAGAACGGAGTCACCTAGTGCAG	30300 fluorescence intensity (a.u.)
TTTAATAGAAGAAACTGAATGCTAGGTAAGCCTAAACCTACGGAGTCACCTAGTGCAG	3690 fluorescence intensity (a.u.)
ATAAATTAACTAGATGAATTCAAATAAGAAGAAGAGCTGTCGGAGTCACCTAGTGCAG	35100 fluorescence intensity (a.u.)
GATGAGATTTGTCTGCCCCGATTGGTTTTCTCCATTTCTTCGGAGTCACCTAGTGCAG	4060 fluorescence intensity (a.u.)
ATACCGCCATTAATTAGCATGTACTCACAAACTCTAAACACGGAGTCACCTAGTGCAG	7420 fluorescence intensity (a.u.)
GTGTCAATTATCTAGGTGGATTGGTTCCACCACAACGAACCGGAGTCACCTAGTGCAG	28600 fluorescence intensity (a.u.)

From paper PMC7819943, “Rice protein-binding microarrays: a tool to detect cis-acting elements near promoter regions in rice”
